# Data: the supplement of paper PMC11283458
# Counter-ions that a name gives are not always drawn. Some of the results follow. Single values are uncertain, as repeats are few or missing.
# Legend:
# [1] = tested on: Mef2d microexon dual Nano/Firefly luciferase splicing reporter in Neuro-2a cells; assay: B-score of Firefly/Nano luminescence ratio, V1 Mef2d microexon reporter (B-score (plate-normalised)); higher = more Mef2d microexon inclusion; details: 24 h
# [2] = tested on: Mef2d microexon dual Nano/Firefly luciferase splicing reporter in Neuro-2a cells; assay: B-score of Nano/Firefly luminescence ratio, V2 Mef2d microexon reporter (B-score (plate-normalised)); higher = more Mef2d microexon inclusion; details: 24 h
# 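For B-score of Nano/Firefly luminescence ratio, V2 Mef2d microexon reporter in this document: compounds at 4 µM (PKI library 0.5 µM) on Dox-inducible N2A Flp-In cells with PEST-tagged luciferases, 384-well plates, B-score from per-plate median-polish residual over median absolute residual.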
SMILES,B-score [1],B-score [2]
O=C(Nc1cccc([N+](=O)[O-])c1)C(C(=O)Nc1cccc([N+](=O)[O-])c1)C12CC3CC(CC(C3)C1)C2 (4 µM),4.13,3.01
Oc1cc(-c2ccccc2)nc2ccccc12 (4 µM),-4.36,-9.62
Nc1ncn([C@@H]2O[C@H](CO)[C@@H](O)[C@H]2O)c(=O)n1 [5-azacytidine] (4 µM),-4.68,-9.01
NC(=NOC(=O)Nc1cccc(Cl)c1)c1ccc2nonc2c1 (4 µM),5.91,2.86
Cc1cc(Nc2nc(N[C@@H](C)c3ccc(F)cc3)c(C#N)cc2F)n[nH]1 (0.5 µM),5,6.58
O=C1/C(=C/c2ccc(O)c(O)c2)SC(=S)N1C1CCCCC1 (4 µM),2.53,12
Cc1nc(-c2ccccn2)nc(NCc2ccccc2)c1Cl (4 µM),2.02,2.03
O=C(Oc1cccc2cccnc12)c1cccc(F)c1 (4 µM),10.9,4.41
O=c1[nH]c(=O)n(C2CC(O)C(CO)O2)cc1I (stereo not drawn) (4 µM),4.72,0.391
O=C(O/N=C(\Nc1ccc(OC(F)(F)F)cc1)c1c(Cl)cccc1Cl)c1ccccc1C(F)(F)F (4 µM),5.17,5.66
N#Cc1c(-c2cccs2)oc(-n2cccc2)c1-c1cc(Br)cs1 (4 µM),4.52,2.5
O=C1Nc2ccc(Br)cc2C1=CC(=O)c1ccc(Br)cc1 (4 µM),3.54,7.65
CCCN1C/C(=C\c2ccc(F)cc2)C(=O)/C(=C/c2ccc(F)cc2)C1 (4 µM),-3.41,-8.9
Cc1onc(-c2c(Cl)cccc2Cl)c1C(=O)ON=C(c1ccc(F)cc1)C1CC1 (4 µM),3.29,4.49
S=C(NCc1cccnc1)SCc1cc(Cl)sc1Cl (4 µM),-0.169,-8.36
O=C(Nc1cccc(Cl)c1)Nc1ccc(Sc2ccccc2)nc1Sc1ccccc1 (4 µM),1.73,6.79
CNC(=O)Nc1ccc(-c2nc(N3CC4CCC(C3)O4)c3cnn(C4CCC5(CC4)OCCO5)c3n2)cc1 (0.5 µM),-2.54,-8.87
O=C(C=c1[nH]c(=O)c(=Cc2ccccc2O)s1)c1cccs1 (4 µM),-11.5,-16.6
O=C(NCc1ccc(NC(=O)C2CC2)cc1)c1n[nH]c2ccccc12 (4 µM),-5.85,-4.73
CC(=O)Nc1ccc(-c2ccc(NC(C)=O)cc2)cc1 (4 µM),-3.82,-4.66
CC(C)c1ccc(NC(=O)CSc2nnc(-c3cc(OCC(F)(F)F)ccc3OCC(F)(F)F)o2)cc1 (4 µM),4.09,3.76
CC[C@]1(O)C[C@@H]2CN(CCc3c([nH]c4ccccc34)[C@@](C(=O)OC)(c3cc4c(cc3OC)N(C)[C@H]3[C@@](O)(C(=O)OC)[C@H](OC(C)=O)[C@]5(CC)C=CCN6CC[C@]43[C@@H]65)C2)C1 [Vinblastine sulfate] (4 µM),-2.94,-5.61

SMILES,B-score [1],B-score [2]
CNC(=O)c1ccccc1Nc1cc(Nc2ccc(N3CCOCC3)cc2OC)ncc1C(F)(F)F (0.5 µM),-3.13,-3.65
CCOC=NC1=C(C#N)C(c2ccc(Cl)cc2)c2ccc3ccccc3c2O1 (stereo not drawn) (4 µM),-3.78,-6.74
COC(=O)Nc1ccc(-c2nc(N3CCOCC3)c3cnn(C4CCN(C(=O)OC)CC4)c3n2)cc1 (0.5 µM),-5.53,-4.42
COc1nc(Nc2nc3ccccc3c(=O)[nH]2)nc2ccc(C)cc12 (4 µM),67.2,8.01
COc1ccc(C(=O)C(C#N)=Cc2ccc(O)cc2)cc1 (4 µM),11.7,1.17
Cc1ccc(NC(=O)COC(=O)CCc2c[nH]c3ccccc23)cc1[N+](=O)[O-] (4 µM),-17.8,-0.139
O=C(CCCCCN1C(=O)c2cccc3cccc(c23)C1=O)NO [Scriptaid] (4 µM),24.4,14.5
COc1c(Br)cc([N+](=O)[O-])c(OC)c1C(=O)NC(=O)Nc1cc(C(F)(F)F)cc(C(F)(F)F)c1 (4 µM),-4.72,-3.48
COC(=O)Nc1nc2ccc(SC(C)C)cc2[nH]1 [Methiazole] (4 µM),-6.58,-31.6
Cc1nc(C(N)=NOC(=O)c2c(-c3ccccc3)noc2C)cs1 (4 µM),5.14,2.78
CN(C)C=Cc1ccnc(-c2cc(C=CN(C)C)ccn2)c1 (4 µM),10.1,5.19
CN(C)S(=O)(=O)c1ccc2c(c1)C(=C(C#N)C#N)c1cc(S(=O)(=O)N(C)C)ccc1-2 (4 µM),-5.73,-2.18
COc1ccc2oc(C(=O)N(C)Cc3cnn(Cc4ccccc4)c3)c(C)c2c1 (4 µM),-2.43,-5.74
c1ccc2c(CN3CCSCC3)c[nH]c2c1 (4 µM),15.1,1.47
CCCOc1ccccc1-c1nc2[nH]nnc2c(=O)[nH]1 [Zaprinast] (4 µM),2.77,6.39
N#CC1=C(N)Oc2ccc3ccccc3c2C1c1cccc(F)c1 (stereo not drawn) (4 µM),-8.07,-11
CON=C1CCCc2c(C(=O)NN=Cc3ccccc3Cl)sc(SC)c21 (4 µM),-8.77,-10.7
CCCCOc1ccc(C2CC(=O)C3=C(C2)c2c(ccc4ccccc24)NC3c2ccc(OC)cc2)cc1 (stereo not drawn) (4 µM),5.27,2.48
COc1ccc(NC(=O)CSC(=O)c2c(-c3c(Cl)cccc3Cl)noc2C)cc1 (4 µM),-6.93,-8.29
Cc1onc(-c2c(F)cccc2Cl)c1C(N)=NOC(=O)c1c(-c2c(Cl)cccc2Cl)noc1C (4 µM),3.92,2.93
CC(C)(C)c1ccc(Oc2ccc(NC(=O)c3ccco3)cn2)cc1 (4 µM),7.08,17.9
Cc1ccc(CNc2ccc3nnc(-c4ccccc4)n3n2)cc1 (4 µM),9.28,2.36
